Measured values: PubChem BioAssay AID624296 (National Center for Advancing Translational Sciences (NCATS), 2012)
Out of some 350,000 compounds screened, about 9,900 (2.8%) were called active. This list was built around the results that the source calls inconclusive (neither active nor inactive); the mix of calls is not that of the screen. Calls come from the whole dose curve; as a rule, active = well fitted activation curve with a large enough effect; inconclusive = small, poorly fitted or top-dose-only effect; inactive = no such curve, though single readings can be large or run the other way. No potency is given beside an inconclusive call; the fits are too rough.

test: A quantitative high throughput screen for small molecules that induce DNA re-replication in MCF 10a normal breast cells.; note: nearly all actives have a fitted effect of over 50% in size; conditions: MCF 10A DNA re-replication, Hoechst nuclear intensity, 48 h; series mostly up to 46.1 µM
Potency is the fitted concentration of half-maximal effect; tags give direction and shape of the fitted curve.

SMILES	Potency
O=C(C[C@@H]1C/C=C\C[C@H](NC(=O)OCC2c3ccccc3-c3ccccc32)C(=O)OC[C@H]2CCCN2C1=O)NCCO	inactive
Cc1ccc(S(=O)(=O)N2CCN(C(=O)CCc3c[nH]c4ccccc34)CC2)cc1	inactive
O=C(/C=C/c1ccc([N+](=O)[O-])cc1)c1ccccc(=O)c1O	active: 2.91 µM
C/C(=N\NC(=S)NCc1ccccc1)c1ccc2ccccc2c1	active: 16.4 µM
Cc1cc(NC(=O)OC2CCCCC2)ccc1[N+](=O)[O-]	inconclusive [activator, single point]
O=C(C1CCCO1)N1CCN(S(=O)(=O)c2cc(F)ccc2F)CC1 (stereo not drawn)	inactive
CC(=O)NC(=O)COC(=O)c1ccc2ncsc2c1	inconclusive [activator, partial curve, poor fit]
O=C(CCl)N1N=C(c2ccco2)CC1c1cccs1 (stereo not drawn)	active: 20.6 µM
COc1ccc(CSc2n[nH]c(C)n2)cc1Br	inconclusive [activator, partial curve, poor fit]
CN(C)CCNC(=O)/C(=C/c1ccc(-c2ccc(Cl)cc2)o1)NC(=O)c1ccccc1	inconclusive [activator, full curve]
Cc1cccc(/N=C/c2c(O)ccc3oc4c(c23)CCCC4)n1	inconclusive [activator, partial curve]
Cc1ccc(NC(=O)C2C3C=CC4(O3)C2C(=O)N(CCCN2CCCC(C)C2)C4C(=O)NC2CCCCC2)cc1 (stereo not drawn)	inconclusive [activator, single point]
COc1cc(OC)cc(C(=O)NNC(=O)C(=O)Nc2cc(OC)c(Cl)cc2OC)c1	inconclusive [activator, single point]
CCOc1ccccc1NC(=O)c1cc(-c2ccncc2)nc2c(Cl)cccc12	inconclusive [activator, single point]
CCOC(=O)c1c(C)oc2c1c(C(c1cccnc1)N1CCOCC1)c(O)c1ccccc12 (stereo not drawn)	inconclusive [activator, partial curve, poor fit]
CN(C)/C=C/C(=O)c1cnc(-c2cccc(Cl)c2)s1	active: 0.651 µM
Oc1c(Cl)cc(Cl)cc1CNc1ccccn1	inconclusive [activator, single point]
Cc1cccc(-c2nc(CN3CCN(Cc4cccc(F)c4)CC3)c(C)o2)c1	inconclusive [activator, partial curve, poor fit]
O[C@@H]1CN(C2CCCCC2)CC[C@H]1N1CCN(CCc2ccccc2)CC1	inactive
Cc1sc(NC(=S)NC(=O)C2CCCCC2)c(C(N)=O)c1C	inconclusive [activator, partial curve, poor fit]
O=C(CSc1nnc2ccccn12)Nc1cccc(-c2nc3ccccc3s2)c1	inconclusive [activator, partial curve, poor fit]
CCOc1ccccc1NC(=O)Cn1nnc(C(=O)NCc2cccs2)c1N	inconclusive [activator, partial curve, poor fit]

SMILES	Potency
CN(C)S(=O)(=O)c1ccc(Cl)c(NC(=O)CN2CCc3ccccc3C2)c1	inconclusive [activator, single point]
O=C(NCc1ccccc1)c1ccc(C(=O)N(C2CCCCC2)C2CCCCC2)cc1	inactive
CCOC(=O)c1ccc(NS(=O)(=O)c2cn(C)cn2)cc1	inconclusive [activator, single point]
CC(C)(C)N=C1NN=C(c2cc3ccccc3o2)CS1	inconclusive [activator, partial curve, poor fit]
O=C(OCCOc1ccccc1)c1cccc(S(=O)(=O)N2CCOCC2)c1	inactive
COc1ccc(C2=NS(=O)(=O)N(C)C(C(=O)Nc3ccc(C(C)=O)cc3)=C2)cc1OC	inactive
CS(=O)(=O)c1ccc(-n2c(=O)n(Cc3ccccc3)c(=O)c3[nH]cnc32)cc1	inactive
COc1ccc(-c2ccc(SCc3ccccn3)nn2)cc1OC	inconclusive [activator, partial curve, poor fit]
Cc1oc(-c2ccc(Cl)cc2)nc1CSCC(=O)NC1CCN(Cc2ccccc2)CC1	inconclusive [activator, partial curve, poor fit]
O=C(CSc1nc2ccccc2c(=O)[nH]1)Nc1ccc([N+](=O)[O-])cc1	inconclusive [activator, partial curve]
COc1ccc(NC(=O)c2c(C)noc2C(C)C)cc1S(=O)(=O)N1CCCCC1	inactive
O=C(CSc1nc2ccccc2[nH]1)Nc1nc(-c2ccc(Br)cc2)cs1	inconclusive [activator, single point]
CCCP(=O)(CC(=O)O)c1ccccc1 (stereo not drawn)	inconclusive [activator, full curve, poor fit]
CCn1cc([N+](=O)[O-])c(C(=O)N2N=C(c3ccc(Cl)c(Cl)c3)CC2c2ccccc2O)n1 (stereo not drawn)	inconclusive [activator, single point]
COc1cc(CC(=O)OCC(=O)c2ccc3c(c2)OCCO3)cc(OC)c1OC	active: 1.3 µM
COCc1ccc(C(=O)N2CCc3c([nH]c4ccccc34)C2c2ccccn2)s1 (stereo not drawn)	inconclusive [activator, single point]
CC(NS(=O)(=O)c1ccc2c(c1)oc(=O)n2C)c1ccccc1 (stereo not drawn)	inactive
O=C(NCc1cccs1)c1cc(-c2cccc(Cl)c2)on1	inconclusive [activator, single point]
CC(C)CN1CCC(=O)N([C@H](CSc2ccccc2)Cc2ccccc2)CC1	inconclusive [activator, partial curve, poor fit]
CSc1ccc(C(=O)N2CCC(CCC(=O)NC3CC3)CC2)cc1	inactive
O=C(c1ccccc1)c1cc([N+](=O)[O-])ccc1N1CCCC1	inconclusive [activator, single point]
